# Results from PMC4336329 (PLoS ONE, 2015).
# Among all 310,000 compounds or so, about 2,200 (0.71%) showed an effect of 50% or more. The effect is printed as a negative number. This is one part of the list.
# Molecular target: human ether-à-go-go-related gene (hERG) potassium channel (human, UniProt Q12809)
# Experiment: primary screen, population patch clamp on CHO cells stably expressing hERG
# Chain of human ether-à-go-go-related gene (hERG) potassium channel (Q12809 whole entry, looked up): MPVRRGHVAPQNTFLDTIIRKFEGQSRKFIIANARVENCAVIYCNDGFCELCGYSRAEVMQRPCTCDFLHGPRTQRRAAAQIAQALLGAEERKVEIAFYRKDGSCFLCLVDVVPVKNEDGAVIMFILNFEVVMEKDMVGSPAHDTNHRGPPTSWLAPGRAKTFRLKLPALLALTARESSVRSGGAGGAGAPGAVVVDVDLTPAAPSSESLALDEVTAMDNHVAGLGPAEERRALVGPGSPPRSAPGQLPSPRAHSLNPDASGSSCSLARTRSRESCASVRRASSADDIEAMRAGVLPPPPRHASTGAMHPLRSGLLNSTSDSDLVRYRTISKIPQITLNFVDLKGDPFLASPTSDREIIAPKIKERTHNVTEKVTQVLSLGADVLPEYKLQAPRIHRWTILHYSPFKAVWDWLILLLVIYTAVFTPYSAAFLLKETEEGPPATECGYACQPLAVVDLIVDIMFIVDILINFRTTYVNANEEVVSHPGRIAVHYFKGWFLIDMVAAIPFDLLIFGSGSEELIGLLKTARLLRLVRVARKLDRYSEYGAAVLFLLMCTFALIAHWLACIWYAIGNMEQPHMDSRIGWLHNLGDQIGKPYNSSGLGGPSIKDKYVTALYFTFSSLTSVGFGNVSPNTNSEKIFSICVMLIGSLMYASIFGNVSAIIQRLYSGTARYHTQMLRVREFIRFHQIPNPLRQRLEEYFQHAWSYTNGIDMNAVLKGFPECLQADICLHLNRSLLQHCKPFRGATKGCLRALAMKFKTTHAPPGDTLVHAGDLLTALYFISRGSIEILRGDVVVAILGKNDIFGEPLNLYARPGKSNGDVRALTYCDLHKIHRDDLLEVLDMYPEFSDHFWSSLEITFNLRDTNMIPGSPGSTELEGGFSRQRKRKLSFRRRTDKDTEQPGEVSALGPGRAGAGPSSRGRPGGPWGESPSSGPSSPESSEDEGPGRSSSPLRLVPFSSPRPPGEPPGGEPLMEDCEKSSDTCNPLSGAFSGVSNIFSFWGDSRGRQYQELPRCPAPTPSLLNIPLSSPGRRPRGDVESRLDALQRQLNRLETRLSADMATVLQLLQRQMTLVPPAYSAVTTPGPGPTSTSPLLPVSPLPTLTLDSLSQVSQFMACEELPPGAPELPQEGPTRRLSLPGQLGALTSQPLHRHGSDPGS
row,Compound,"hERG current change (%, negative = inhibition) at 1uM [%]"
1,CCN(CC)c1nc(C)nc2c1cnn2CCc1ccccc1.Cl,10.2
2,COC(=O)c1sc(N2C(=O)c3oc4ccccc4c(=O)c3C2c2cccc(O)c2)nc1C (stereo not drawn),5.01
3,COc1ccccc1CNC(=O)C1CC(c2ccccc2F)=NO1 (stereo not drawn),1.18
4,O=C(NC(=S)Nc1ccc2c(c1)OCCO2)c1cccc2ccccc12,4.58
5,O=C(Nc1ccc(N2CCN(C(=O)c3ccc(Cl)cc3)CC2)cc1)c1ccc2c(c1)OCCO2,0.171
6,COc1cc(C(=O)N2CCN(c3cccc(C)c3C)CC2)cc(OC)c1OC,2.77
7,O=C(O)C1CCCN1S(=O)(=O)c1cc(Cl)ccc1Cl (stereo not drawn),7.21
8,CCN(CC(=O)NCc1cccs1)C(=O)c1cccc(S(=O)(=O)Nc2ccc(C)cc2)c1,8.65
9,COc1ccc(S(=O)(=O)Nc2cccc(S(=O)(=O)NC3=NCCC3)c2)cc1[N+](=O)[O-],13.2
10,CC(=O)Nc1cc2c3c(c1)CCN3C(=O)CC2,22.9
11,CCOc1ccc(CC(=O)NNC(=S)NCCc2ccccc2)cc1,9.01
12,O=C(CCNS(=O)(=O)c1cccc2nsnc12)N1CCN(c2ccccn2)CC1,1.62
13,CCOC(=O)C1(CCOc2ccccc2)CCN(Cc2ccc3c(c2)OCCO3)CC1,-25.8
14,O=c1[nH]c(/C=C\c2cccs2)nc(O)c1[N+](=O)[O-],7.29
15,CCOc1cccc2cc(C(=O)NCc3ccc(Cl)cc3)c(=N)oc12,9.46
16,COc1ccc(N=Cc2nc(-c3ccco3)oc2O)cc1,7.06
17,Cc1ccc(Cl)cc1NS(=O)(=O)N1CCOCC1,4.61
18,ClC1=C(Cl)C2(Cl)C3C(Cl)C=CC3C1(Cl)C2(Cl)Cl (stereo not drawn),9.29
19,Cc1ccc(-c2nn(CC(=O)NCCN3CCOCC3)c(=O)c3ccccc23)cc1,-3.87
20,COc1ccc2c(c1)C(c1ccc(C)o1)=NNC(c1cccnc1)=N2,9.67
21,Cc1ccc(-n2nnnc2SCC(=O)Nc2nc(-c3ccc(F)cc3)cs2)cc1C,11.5
22,Cc1cc(C)cc(NC(=O)CN2CCC(NC(=O)c3ccccc3F)CC2)c1,-1.51
23,NNC(=O)c1ccc(Cn2cccn2)o1,6.5

row,Compound,"hERG current change (%, negative = inhibition) at 1uM [%]"
1,COc1cccc(C(=O)Nc2ccc3c(c2)C(=O)N(CC2CCCO2)C3=O)c1 (stereo not drawn),0.596
2,Cc1ccccc1NC(=O)CN1C(=O)NC(C)(c2ccc3c(c2)OCO3)C1=O (stereo not drawn),10.1
3,COc1ccccc1C(=O)Nc1ccnn1C1CCN(CC2CC=CCC2)CC1 (stereo not drawn),-69.1
4,O=C(Nc1cccnc1)C1CCC(CNS(=O)(=O)c2cccc3nsnc23)CC1 (stereo not drawn),5.13
5,CCOc1c2ccccc2nn1CCO,14.5
6,Cc1nc(NC(=O)CN(C)S(=O)(=O)c2ccc(Br)cc2)sc1C,-1.16
7,Br.CCn1c2c(c(=N)c3ccccc31)CCC2,12
8,O/N=C1\CCC\C1=C/c1ccco1,11.4
9,Fc1ccc2nc3n(c2c1F)CCCCCC3,13.4
10,CCC(=O)NCC(c1ccco1)N1CCN(c2ccc(OC)cc2)CC1 (stereo not drawn),13.4
11,O=C(Nc1nccs1)C(c1ccccc1)N1CCCC1 (stereo not drawn),2.47
12,O=C(CN1C(=O)C2CC=CCC2C1=O)NCC1COc2ccccc2O1 (stereo not drawn),8.49
13,COc1ccc(CS(=O)(=O)CC(C)(O)c2ccccc2Cl)cc1 (stereo not drawn),12.9
14,CCn1c(SCC(=O)Nc2nccs2)nnc1C1CC1,21.3
15,COCCCn1c(C)nnc1-c1cnn(-c2ccccc2)c1N,18.3
16,Cc1nn(CC(=O)Nc2ccccn2)c(C)c1[N+](=O)[O-],14.1
17,CC1CCCC(C)N1/N=C/c1ccc([N+](=O)[O-])cc1 (stereo not drawn),5.14
18,CC1(/[N+]([O-])=C/c2ccccc2F)CCCCC1=O (stereo not drawn),4.48
19,CCOc1ccccc1NC(=O)COC(=O)/C=C/c1ccc(OC)c(OC)c1,8.3
20,Cc1cc(C(=O)NNC(=O)COc2c(C)cc(Br)cc2C)n[nH]1,-16.1
21,O=C(NCCc1cccs1)c1ccc(Cl)c(Cl)c1,-0.66
22,C/C(=N\NC(=O)c1ccccc1[N+](=O)[O-])c1ccc(Br)s1,14.7
23,CSc1ccc(NC(=O)Nc2cc(C)ccn2)cc1,15.3

row,Compound,"hERG current change (%, negative = inhibition) at 1uM [%]"
1,CC(C)(C)CN1C(=O)C(=O)NC[C@H]1Cc1ccc(O)cc1,8.12
2,Cc1ccc(NC2=NCCCCC2)cc1C.Cl,18.1
3,Cc1cc(N(CN2CCCC2=O)C(=O)c2ccc(OC(C)C)cc2)no1,-0.184
4,CC(=O)NCC(=O)Nc1ccc(Br)cc1C(=O)c1ccccc1,7.11
5,Cc1cc(-c2c(C)[nH]n(-c3ccc(Cl)cc3)c2=O)n(-c2ccccc2)n1,8.13
6,O=C(NNC1=Nc2ccccc2SC1)c1ccccc1F,16.5
7,CCOC(=O)c1nnn(CC(=O)N2N=C(c3ccc(Cl)cc3)CC2c2ccc(OC)cc2)c1C(=O)OCC (stereo not drawn),0.0097
8,Cc1cc(C)cc(N(CC(=O)O)S(=O)(=O)c2c(C)[nH]c(=O)[nH]c2=O)c1,9.7
9,COc1ccc(S(=O)(=O)Nc2ccc(C)cc2)cc1N(C)S(=O)(=O)c1ccc(Cl)cc1,8.03
10,CC(C)N(C(=O)Cn1cc(SCC(N)=O)c2ccccc21)C(C)C,7.97
11,Cc1ccccc1C(=O)NNC(=S)NC(=O)COc1ccccc1,16.5
12,CCOc1ccc(CCNc2nc3ccccc3n3cnnc23)cc1OCC,15
13,Cc1cc2ncn(C(=O)c3c(-c4ccccc4)noc3C)c2cc1C,0.0878
14,CC(C)(C)OC(=O)N1CCC(c2c(C(=O)NCC3CCN(C4CCCC4)C3)cnn2-c2cccc(Cl)c2)CC1 (stereo not drawn),5.86
15,CC(Sc1nc(N)c(NC(=O)c2ccc(Br)o2)c(=O)[nH]1)C(=O)O (stereo not drawn),-4.87
16,O=C(CSc1nc2nc(-c3cccs3)cc(C(F)(F)F)c2c(=O)[nH]1)NCc1ccco1,4.84
17,CCOC(=O)CN(C(=O)Cn1nnc(-c2ccc(C)cc2)n1)C(CC)C(=O)NC1CCCC1 (stereo not drawn),3.44
18,O=C(Nc1ccc(F)cc1)Nc1nnc(-c2ccncc2)s1,13
19,CCC(CO)N=CC1=C(O)CC(c2ccccc2)CC1=O (stereo not drawn),15.6
20,O=C(CCN1C(=O)/C(=C\c2ccccc2)SC1=S)NCCCN1CCOCC1,-2.63
21,COc1ccc2c(c1)C1NC(=S)NC(C)(O2)C1C(=O)Nc1ccccc1C (stereo not drawn),4.75
22,Cc1ccccc1N1C(=O)C(Oc2ccc(Cl)cc2)C1CNCCCOC(C)C (stereo not drawn),-3.82
23,Cc1cc(=O)[nH]c2c1c(C)nn2C1CCCCC1,3.19

row,Compound,"hERG current change (%, negative = inhibition) at 1uM [%]"
1,Cc1cc(C(=O)CSc2nnnn2-c2ccc(O)cc2)c(C)n1C,15.4
2,O=C(COc1coc(CN2CCc3ccccc32)cc1=O)NCCc1ccccc1,12.1
3,Cc1c(N2C(=O)C3C4C=CC(C4)C3C2=O)c(=O)n(-c2ccccc2)n1C (stereo not drawn),14
4,CCc1nnc(NC(=O)c2ccc(COc3ccccc3C)o2)s1,15.8
5,Cl.Nc1nonc1C(=O)NCCNCc1c(OCc2ccccc2F)ccc2ccccc12,-1.93
6,Cc1cccc(C)c1OCCNC(=O)c1ccc2ccccc2n1,12.2
7,COc1ccc(-c2ccnc(SCC(=O)c3ccc(Br)cc3)n2)cc1,-2.08
8,CCOC(=O)C1CCN(C(=O)CSc2ccc(Br)cc2)CC1,-1.57
9,Cc1ccc(C)c(S(=O)(=O)Nc2ccc(C(=O)N3CCC3)cc2)c1,6
10,Cc1cc(OCC(=O)NCCN2CCOCC2)c2c(C)c(C)c(=O)oc2c1,6.74
11,CC1Cc2ccccc2N1C(=O)CO/N=C/c1ccc(OC(F)F)cc1 (stereo not drawn),-4.16
12,CCCn1nnnc1SCC(=O)Nc1cccc(NC(=O)c2ccco2)c1,-0.863
13,Cc1cc(C(=O)NNc2c(Cl)cccc2Cl)n(C(C)(C)C)n1,14.4
14,CCOC(=O)c1cn(CC(=O)Nc2ccc(C)cc2)nn1,5
15,Cc1ccc(S(=O)(=O)Nc2nc3ccccc3nc2N2CCN(c3ccccc3F)CC2)cc1,3.63
16,COc1ccccc1NS(=O)(=O)c1cccc(C(=O)NCC(c2ccco2)N2CCCC2)c1 (stereo not drawn),4.17
17,Cc1cc2c(cc1C)/C(=N/NC(=O)c1ccccn1)CCC2,9.3
18,Cc1cc(C(F)(F)F)nc(SCC(=O)c2cccc([N+](=O)[O-])c2)n1,8.12
19,O=C(N/N=C/c1c(O)n(-c2ccc(Cl)cn2)c(=O)c2ccccc12)C1CC1,11.3
20,COc1ccc(CCn2c(C)ccc2C)cc1OC,12
21,O=C(NCC(c1ccco1)N1CCCCC1)c1ccc(OCc2ccccc2)cc1 (stereo not drawn),7.85
